Test results: PMC6919601, “Identification of Plasmodium dipeptidyl aminopeptidase allosteric inhibitors by high throughput screening” (PLoS ONE, 2019)
About 230 (0.21%) of roughly 110,000 compounds showed an effect of 50% or more. Some of the results follow.

target: DPAP1 (Plasmodium falciparum, UniProt Q8IIJ9); test: primary screen, percent inhibition; read by cleavage of a fluorogenic dipeptide substrate; higher = more effect of the substance; set-up: species or system P. falciparum D10 trophozoite lysates; single well
Sequence (Q8IIJ9 whole entry, looked up): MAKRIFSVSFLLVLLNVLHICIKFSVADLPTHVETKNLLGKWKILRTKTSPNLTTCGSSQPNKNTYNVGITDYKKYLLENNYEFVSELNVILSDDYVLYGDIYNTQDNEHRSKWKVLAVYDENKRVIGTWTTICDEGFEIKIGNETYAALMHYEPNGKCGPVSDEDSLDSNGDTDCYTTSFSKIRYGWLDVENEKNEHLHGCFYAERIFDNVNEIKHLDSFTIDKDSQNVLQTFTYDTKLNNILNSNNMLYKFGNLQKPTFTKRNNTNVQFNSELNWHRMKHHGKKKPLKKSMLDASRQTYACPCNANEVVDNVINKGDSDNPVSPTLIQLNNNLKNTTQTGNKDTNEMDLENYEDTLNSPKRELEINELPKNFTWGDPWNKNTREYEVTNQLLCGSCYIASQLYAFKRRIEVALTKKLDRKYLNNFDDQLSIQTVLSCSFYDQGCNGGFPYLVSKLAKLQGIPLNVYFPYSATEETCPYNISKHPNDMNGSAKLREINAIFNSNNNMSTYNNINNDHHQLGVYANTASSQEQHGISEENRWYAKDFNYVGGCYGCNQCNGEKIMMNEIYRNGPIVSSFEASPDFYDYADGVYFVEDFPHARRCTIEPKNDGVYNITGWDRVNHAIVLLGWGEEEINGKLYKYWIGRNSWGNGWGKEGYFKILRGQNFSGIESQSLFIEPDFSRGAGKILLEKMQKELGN
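Note: 30 min substrate incubation versus DMSO and 10 µM JCP410 controls.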

| SMILES | % Inhibition @ 10 uM [%] |
| --- | --- |
| NC(=O)C1CCN(S(=O)(=O)Cc2ccccc2Cl)CC1 | -0.795 |
| Cc1nc2nncn2c(NCc2ccccc2)c1C | 0.895 |
| N#CC1(NC(=O)[C@H](Cc2c(F)cccc2F)NC(=O)c2ccc(-c3ccccc3Cl)c(Cl)c2)CCS(=O)(=O)CC1 | -0.207 |
| C=CCSc1nnc(-c2cccnc2)n1-c1ccccc1 | 0.401 |
| NC(=O)Cn1c(=O)n(Cc2ccco2)c(=O)c2sc3ccccc3c21 | -4.58 |
| Cc1cc(C)c(C#N)c(NC(=O)c2ccn(C)n2)c1 | -4.15 |
| O=C(O)c1ccc(COc2ccc3c(c2)CCC3)cc1 | 5.24 |
| COc1cc(C2C(C(C)=O)=C(C)Nc3ncnn32)ccc1OCCc1ccccc1 (centres unmarked) | -4.41 |
| CC1CN(Cc2cccc(Cl)c2)CC(C)O1 (centres unmarked) | -3.42 |
| Cc1nc2c(c(C)c1CCC(=O)NCc1ccc(CN3CCCCCC3)o1)c(=O)n(C)c(=O)n2C | 3.75 |
| Cc1ccc(C(=O)Nc2cc(Cl)c(O)c(Cl)c2)cc1 | -1.17 |
| Cc1cc2ccccc2c(=O)n1CC(=O)NCC(=O)N1CCCC(C)C1 (centres unmarked) | 0.457 |
| O=C1c2ccccc2C(=O)N1CCc1c[nH]c2ccc(O)cc12 | 4.73 |
| OCCN1CCN(CC/C=C2/c3ccccc3CSc3ccccc32)CC1 | -7.31 |
| O=C(CSc1nnc(O)nc1O)c1ccc(Cl)cc1 | -0.142 |
| O=C(c1ccc(Cl)cc1)n1c(=O)oc2ccccc21 | 0.76 |
| COc1ccc(C2CC(C(F)(F)F)n3ncc(C(=O)N(C)Cc4cn(C)nc4C)c3N2)cc1OC (centres unmarked) | -2.37 |
| Cc1cccc(Oc2nc3ccccn3c(=O)c2/C=C(\C#N)C(=O)NCCc2ccccc2)c1C | 2 |
| CC(O)CON1C(=O)c2ccccc2C1=O (centres unmarked) | 1.25 |
| Cc1cccc(-n2c(S)nnc2Cn2nc(C)cc2C)c1 | -2.9 |
| N#Cc1ccccc1NC(=O)c1ccc(F)cc1 | -1.38 |
| CC(NC(=O)COc1ccccc1C(C)(C)C)c1ccccc1 (centres unmarked) | 14.5 |
| CCc1ccc(C(Nc2ccccn2)c2ccc3cccnc3c2O)cc1 (centres unmarked) | -0.85 |
| COc1ccc(NS(=O)(=O)c2ccc(NC(=O)COc3ccc(C)cc3)cc2)cc1 | -1.51 |
| COc1ccc(S(=O)(=O)NCC2CCC(C(=O)NCCC(C)C)CC2)cc1 (centres unmarked) | 5.99 |

| SMILES | % Inhibition @ 10 uM [%] |
| --- | --- |
| CCc1ccc(-c2csc3nc4ccccc4n23)cc1 | 1.01 |
| O=C(O)c1ccc(Nc2nc(-c3ccc(Cl)c(Cl)c3)cs2)cc1 | -0.0267 |
| CCO/C(O)=C(\C#N)c1ncc(Br)c(-c2ccccc2)n1 | 0.937 |
| COc1ccc(-c2c3c(=O)n(C)c(=O)n(C)c3cn2-c2ccccn2)cc1 | -4.11 |
| O=C(NC1CCCCCC1)C1CCC(Cn2c(=O)[nH]c3ccsc3c2=O)CC1 (centres unmarked) | -3.27 |
| CCCCNc1cc(O)c(CC(=O)Nc2ccccc2)c2cc(OC)c(OC)cc12 | 25.7 |
| O=C(NCc1cccs1)c1cc(-c2ccc3c(c2)OCO3)on1 | -10.7 |
| Cc1ccc2c(C(=O)CN(C)C)c(C)[nH]c2c1 | -5.28 |
| COc1cc(CNc2ccc(N3CCN(C(C)=O)CC3)cc2)ccc1OCc1ccc(F)cc1 | 3.75 |
| Cc1nc2ccccn2c(=O)c1C(=O)NCc1ccccc1Br | 3.3 |
| Cc1n[nH]c(C)c1CCCCCCOc1ccccc1Cl | 6.49 |
| CC1(c2ccccc2)OC(=O)C(=Cc2ccc(Br)cc2)C(=O)O1 (centres unmarked) | 0.146 |
| CC(=O)c1ccc(S(=O)(=O)NCc2cn3ccccc3n2)cc1 | 0.00665 |
| COC(=O)c1cc2oc(C)cc2n1Cc1nc(-c2ccccc2C)oc1C | -9.3 |
| CC(C)C[C@H](NC(=O)/C=C/S(=O)(=O)c1ccccc1)C(=O)N[C@@H](Cc1ccccc1)C(=O)O | -6.46 |
| Cc1cc2[nH]c3ccccc3c2c(C)n1 | -1.06 |
| O=C1c2ccccc2-c2nnc(-c3ccc(O)cc3)cc21 | 9.74 |
| COc1ccc(-c2onc(C)c2C)cc1S(=O)(=O)NC(C)Cc1ccco1 (centres unmarked) | -4.17 |
| Cc1nc(O)c2c3c(sc2n1)CCCC3 | -1.11 |
| CSc1ccc(CN2C[C@@H]3C[C@H](C2)c2cccc(=O)n2C3)cc1 | 3.82 |
| N=C1N(c2ccccc2)C(=O)/C(=C/C(=O)c2cccs2)N1c1ccccc1 | 2.22 |
| NC(=O)C1CCN(Cc2c(Cl)cccc2Cl)CC1 | 1.05 |
| COCCCN1C(=O)/C(=C\c2cc(Br)ccc2OC)C(C(=O)OC)=C1C | -4.93 |
| COc1ccc(-c2noc(CN(C(=O)c3cc(OC)cc(OC)c3)C(C)C)n2)cc1 | -4.94 |
| COC(=O)c1sccc1S(=O)(=O)N1CCc2ccccc2C1 | -4.75 |
